Data set [1] deals with the molecule itself. Put plainly: SDS-PAGE and immunoblot (dimer band); syb2 (WT or mutants) reconstituted in nanodisks (ND3S, ND5S, ND7S, ND5L, ND55L; lipid composition, cholesterol and syt1 varied); Laemmli sample buffer, 95°C 5 min; syb2 antibody; dimer-to-monomer band intensity ratio (D/M). Background: A western blot detects proteins with antibodies after separation by electrophoresis.

Data set [2] addresses T1, t-SNARE heterodimers (comprising syntaxin-1a and SNAP-25B) (rat | mouse).
T1 construct: syntaxin-1a, rat cDNA; SNAP-25B, mouse cDNA; also called t-SNAREs; t-SNARE heterodimers (T); source: bacterial expression as his-tagged proteins at 37°C, purified on Ni-NTA agarose; reconstituted in liposomes (t-lipo); not shown: His tag (heterodimer expressed as his-tagged protein)
Put plainly: SDS-PAGE and immunoblot of the SDS-resistant SNARE complex; syb2 nanodisks (ND5S, ND3S, ND7S, ND5L; WT or mutants) incubated with t-lipo (10:1) overnight at 4°C in 25 mM Hepes–KOH pH 7.4, 100 mM KCl, 2 mM β-mercaptoethanol; samples not boiled; syb2 or SNAP-25B antibody; control heated at 95°C for 30 min. As to conditions: both partners purified.

B1: synaptobrevin2 (syb2) L99W (natural protein)
chain: not shown
notes: synaptobrevin2 (syb2), rat cDNA; also called ND5S (L99W); source: bacterial expression as GST-tag protein, purified on glutathione Sepharose, eluted with thrombin; reconstituted in nanodisks (ND5S)
On to B1, for which the binding result in data set [1] was “binds”.

B2: synaptobrevin2 (syb2) C103W (natural protein)
chain: not shown
notes: synaptobrevin2 (syb2), rat cDNA; also called ND5S (C103W); source: bacterial expression as GST-tag protein, purified on glutathione Sepharose, eluted with thrombin; reconstituted in nanodisks (ND5S)
In the case of B2, in data set [1], the binding result is recorded as “binds”.

B3: synaptobrevin2 (syb2) I105A (natural protein)
chain: not shown
notes: synaptobrevin2 (syb2), rat cDNA; also called ND5S(I105A); source: bacterial expression as GST-tag protein, purified on glutathione Sepharose, eluted with thrombin; reconstituted in nanodisks (ND5S)
As for B3, the binding result in data set [2] was “binds”.

B4: synaptobrevin2 (syb2) V101A (natural protein)
chain: not shown
notes: synaptobrevin2 (syb2), rat cDNA; also called ND5S (V101A); source: bacterial expression as GST-tag protein, purified on glutathione Sepharose, eluted with thrombin; reconstituted in nanodisks (ND5S)
B4: the binding result in data set [2] is “binds”.

These data come from publication PMC10796598, “Synaptobrevin2 monomers and dimers differentially engage to regulate the functional trans-SNARE assembly” (Life Science Alliance, 2024).
